# PubChem BioAssay (Tox21)
# Where “and” joins values, the source holds several entries; their conditions need not be identical. Equal entries are not always repeated. Calls of active or inactive are those of the source. Unless noted, calls follow the shape of the dose curve; as a rule, active = well fitted curve in the direction sought with a large enough effect in the repeat runs; inconclusive = weak or mixed curves; inactive = no such curve, though single readings can be large; an effect the other way counts as inactive or inconclusive.
# Legend:
# [1] = target: Androgen receptor (Homo sapiens) (UniProt P10275); test: qHTS assay to identify small molecule agonists of the androgen receptor (AR) signaling pathway (AID 743036; active = well fitted activation curve with a large enough effect in the signal ratio in the repeat runs, with a control signal flat, not every such curve was filed as active; inconclusive = weak or mixed curves, or effect the other way; inactive = no such curve, though single readings can be large or run the other way; the % refers to the signal ratio; also: potency is read from the fitted curve at half-maximal effect; as to activation: % is scaled to controls: 0 for no effect and ±100 for the full control effect); details: HEK293 AR-UAS-bla GripTite, beta-lactamase FRET ratio, 16 h; activation: at 62.4 µM (top of the series) unless noted
# Chain of UniProt P10275 (P10275 whole entry, looked up): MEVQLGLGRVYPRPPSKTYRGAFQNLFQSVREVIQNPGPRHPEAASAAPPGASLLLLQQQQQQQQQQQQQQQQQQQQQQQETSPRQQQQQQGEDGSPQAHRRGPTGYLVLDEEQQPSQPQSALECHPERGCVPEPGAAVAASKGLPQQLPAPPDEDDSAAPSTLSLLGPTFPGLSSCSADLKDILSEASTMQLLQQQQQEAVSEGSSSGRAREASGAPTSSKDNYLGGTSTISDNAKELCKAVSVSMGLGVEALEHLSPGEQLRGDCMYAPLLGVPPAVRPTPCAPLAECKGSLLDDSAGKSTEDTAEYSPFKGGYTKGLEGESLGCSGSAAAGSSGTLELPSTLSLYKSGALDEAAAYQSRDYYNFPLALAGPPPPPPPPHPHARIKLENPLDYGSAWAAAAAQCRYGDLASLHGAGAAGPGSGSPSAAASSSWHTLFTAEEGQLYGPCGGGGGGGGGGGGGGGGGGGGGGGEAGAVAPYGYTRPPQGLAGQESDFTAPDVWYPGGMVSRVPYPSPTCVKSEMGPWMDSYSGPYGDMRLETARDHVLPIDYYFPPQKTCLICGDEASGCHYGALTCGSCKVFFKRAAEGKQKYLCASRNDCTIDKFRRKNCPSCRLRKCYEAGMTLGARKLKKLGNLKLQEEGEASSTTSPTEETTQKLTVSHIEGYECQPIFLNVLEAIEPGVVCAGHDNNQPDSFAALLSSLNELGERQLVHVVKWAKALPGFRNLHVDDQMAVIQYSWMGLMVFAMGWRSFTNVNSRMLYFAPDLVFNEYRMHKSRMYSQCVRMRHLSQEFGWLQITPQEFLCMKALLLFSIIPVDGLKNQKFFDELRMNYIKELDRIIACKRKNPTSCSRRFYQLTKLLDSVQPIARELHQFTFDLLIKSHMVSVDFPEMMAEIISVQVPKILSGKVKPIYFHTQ
# In short: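 Cell-based FRET reporter assay: HEK293 line with a UAS-beta-lactamase construct, compounds added in DMSO, 16 h exposure at 37C, then 2 h substrate step at room temperature and fluorescence intensity read.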
# [2] = target: Androgen receptor (Homo sapiens) (UniProt P10275); test: qHTS assay to identify small molecule agonists of the androgen receptor (AR) signaling pathway using the MDA cell line (AID 743040; also: % is scaled to controls: 0 for no effect and ±100 for the full control effect; nearly all actives have a fitted effect of over 20% in size); details: MDA-kb2 AR-luc cells, MMTV luciferase, 16 h; activity change: at 70.3 µM (top of the series), stronger effect = higher value
# In short: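 MDA-kb2 breast carcinoma cells stably carrying an MMTV-driven luciferase reporter (AR- and GR-responsive) were seeded and held 5 h at 37C, 0% CO2, then exposed to compounds in DMSO for 16 h. Luminescence was read 30 min after ONE-Glo addition.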
# [3] = qHTS assay to identify small molecule antagonists of the thyroid receptor (TR) signaling pathway (AID 743065); details: GH3.TRE-Luc, T3-stimulated luciferase inhibition, 23.5 h; series mostly up to 70.3 µM; also: nearly all actives have a fitted effect of over 55% in size; also: potency is read from the fitted curve at half-maximal effect
# In short: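 GH3.TRE-Luc rat pituitary cells carrying two TR response elements driving luciferase were plated for 4 h, given compound plus 1 nM T3 (final), and incubated 23.5 h at 37 C. ONE-Glo luminescence measured reporter inhibition; CellTiter-Fluor fluorescence tracked cytotoxicity.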
# [4] = qHTS assay to identify small molecule antagonists of the estrogen receptor alpha (ER-alpha) signaling pathway - cell viability counter screen (AID 743074; calls by dose curve; also: nearly all actives have a fitted effect of over 45% in size; also: potency is read from the fitted curve at half-maximal effect); details: ERalpha-bla HEK293 viability, CellTiter-Glo luminescence, 18 h; series mostly up to 69.4 µM
# [5] = qHTS assay to identify small molecule antagonists of the estrogen receptor alpha (ER-alpha) signaling pathway using the BG1 cell line (AID 743080; calls by dose curve;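 also: BG1 cells stimulated with 17beta-estradiol alongside compound; nearly all actives have a fitted effect of over 25% in size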; also: potency is read from the fitted curve at half-maximal effect; as to activity change, negative = inhibition: % is scaled to controls: 0 for no effect and ±100 for the full control effect); details: BG1Luc4E2 ERE-luciferase antagonist mode, luminescence; activity change, negative = inhibition: at 70.3 µM (top of the series) unless noted
# In short: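 Readout is ONE-Glo luminescence, taken 30 min at room temperature after reagent addition, preceded by a CellTiter-Fluor viability read; BG1-Luc-4E2 cells had received compound and 17beta-estradiol for 21.5 h at 37 C.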
# [6] = qHTS assay to identify aromatase inhibitors - cell viability counter screen (AID 743084); details: MCF-7 aro ERE viability, CellTiter-Fluor, 24 h; series mostly up to 70.3 µM;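 also: cells stimulated with testosterone during compound exposure; nearly all actives have a fitted effect of over 55% in size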; also: potency is read from the fitted curve at half-maximal effect
# [7] = target: Peroxisome proliferator-activated receptor gamma (Homo sapiens) (UniProt P37231); test: qHTS assay to identify small molecule antagonists of the peroxisome proliferator-activated receptor gamma (PPARg) signaling pathway (AID 743191; calls by dose curve; also: nearly all actives have a fitted effect of over 30% in size; also: potency is read from the fitted curve at half-maximal effect); details: HEK293H PPARg-UAS-bla, beta-lactamase ratio, antagonist, 17 h; ratio activity, negative = inhibition: at 62.6 µM (top of the series) unless noted
# Chain of UniProt P37231 (P37231 whole entry, looked up): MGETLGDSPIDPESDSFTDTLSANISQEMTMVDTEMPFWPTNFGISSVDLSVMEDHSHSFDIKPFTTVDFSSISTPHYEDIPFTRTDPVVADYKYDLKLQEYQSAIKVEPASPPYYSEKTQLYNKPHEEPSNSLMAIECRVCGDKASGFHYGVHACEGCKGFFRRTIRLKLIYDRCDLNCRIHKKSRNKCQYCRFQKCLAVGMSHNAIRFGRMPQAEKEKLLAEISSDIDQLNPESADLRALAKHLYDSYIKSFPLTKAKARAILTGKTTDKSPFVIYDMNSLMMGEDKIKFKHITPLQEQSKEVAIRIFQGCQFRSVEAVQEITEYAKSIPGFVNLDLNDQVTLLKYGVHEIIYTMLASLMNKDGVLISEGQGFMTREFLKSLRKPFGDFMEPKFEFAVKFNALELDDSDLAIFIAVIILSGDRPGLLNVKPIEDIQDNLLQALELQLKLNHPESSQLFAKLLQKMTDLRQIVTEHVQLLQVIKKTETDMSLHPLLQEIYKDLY
# In short: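 GeneBLAzer PPARg UAS-bla HEK293H cells carrying a UAS-driven beta-lactamase reporter were plated at 3000 cells/well, preincubated 5 h at 37C, then given compound for 17 h at 37C; LiveBLAzer B/G FRET substrate was read after 1 h at room temperature.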
# [8] = target: Androgen receptor (Homo sapiens) (UniProt P10275); test: qHTS assay to identify small molecule antagonists of the androgen receptor (AR) signaling pathway (AID 743035; active = well fitted inhibition curve with a large enough effect in the signal ratio in the repeat runs, not every such curve was filed as active; inconclusive = weak or mixed curves, or effect the other way; inactive = no such curve, though single readings can be large or run the other way; the % refers to the signal ratio; also: % is scaled to controls: 0 for no effect and ±100 for the full control effect); details: HEK293 AR-UAS-bla, R1881-stimulated, beta-lactamase FRET, 16 h; activity change, negative = inhibition: at 58.5 µM (top of the series) unless noted
# In short: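 Antagonism is scored as loss of R1881-driven beta-lactamase reporter expression in HEK293 cells carrying the reporter under a UAS element, after 16 h co-treatment at 37C and a 2 h room-temperature FRET substrate read.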
# [9] = qHTS assay to identify small molecule antagonists of the androgen receptor (AR) signaling pathway using the MDA cell line - cell viability counter screen (AID 743041; also: nearly all actives have a fitted effect of over 45% in size; also: potency is read from the fitted curve at half-maximal effect); details: MDA-kb2 viability, CellTiter-Fluor, 16 h, cells co-treated with R1881 androgen agonist; viability change, negative = cytotoxic: at 70.3 µM (top of the series) unless noted
# In short: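 MDA-kb2 AR-luc human breast carcinoma cells (MMTV-luciferase, AR/GR responsive) were treated with compounds plus R1881 agonist for 16 h at 37 °C. Viability was read as CellTiter-Fluor fluorescence in the same wells as the reporter assay.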
# [10] = qHTS assay to identify small molecule antagonists of the thyroid receptor (TR) signaling pathway - cell viability counter screen (AID 743064); details: GH3.TRE-Luc viability, CellTiter-Fluor, 24 h; activity change, negative = cytotoxic: at 70.3 µM (top of the series); also: potency is read from the fitted curve at half-maximal effect; nearly all actives have a fitted effect of over 50% in size
# In short: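 In rat pituitary GH3.TRE-Luc reporter cells co-exposed to compound and 1 nM T3 for 23.5 h, cytotoxicity was assessed with CellTiter-Fluor in the same wells, read by fluorescence.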
# [11] = target: Estrogen receptor (Homo sapiens) (UniProt P03372); test: qHTS assay to identify small molecule agonists of the estrogen receptor alpha (ER-alpha) signaling pathway using the BG1 cell line (AID 743079); details: BG1Luc4E2 cells, ERE-luciferase agonist, 22 h; activation: at 70.3 µM (top of the series) unless noted; also: potency is read from the fitted curve at half-maximal effect; nearly all actives have a fitted effect of over 20% in size
# Chain of UniProt P03372 (P03372 whole entry, looked up): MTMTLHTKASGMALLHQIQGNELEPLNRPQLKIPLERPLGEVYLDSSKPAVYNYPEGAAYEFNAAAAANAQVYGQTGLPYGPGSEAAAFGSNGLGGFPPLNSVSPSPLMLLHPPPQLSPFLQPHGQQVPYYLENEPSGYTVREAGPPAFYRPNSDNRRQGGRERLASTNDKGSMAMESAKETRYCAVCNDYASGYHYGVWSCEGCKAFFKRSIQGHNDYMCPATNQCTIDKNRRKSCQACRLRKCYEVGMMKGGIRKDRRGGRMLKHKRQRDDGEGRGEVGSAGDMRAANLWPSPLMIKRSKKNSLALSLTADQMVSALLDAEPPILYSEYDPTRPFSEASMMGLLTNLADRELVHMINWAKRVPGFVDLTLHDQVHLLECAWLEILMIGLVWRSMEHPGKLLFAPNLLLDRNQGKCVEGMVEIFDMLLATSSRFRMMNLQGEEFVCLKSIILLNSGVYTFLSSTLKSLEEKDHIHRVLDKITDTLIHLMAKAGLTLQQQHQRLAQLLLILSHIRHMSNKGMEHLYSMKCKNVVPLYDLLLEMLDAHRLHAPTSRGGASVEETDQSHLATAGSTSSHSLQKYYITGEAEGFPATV
# [12] = target: Androgen receptor (Homo sapiens) (UniProt P10275); test: qHTS assay to identify small molecule antagonists of the androgen receptor (AR) signaling pathway using the MDA cell line (AID 743042; also: potency is read from the fitted curve at half-maximal effect; nearly all actives have a fitted effect of over 55% in size); details: MDA-kb2 AR-luc, MMTV luciferase, R1881 antagonist, 16 h; series mostly up to 70.3 µM
# In short: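 MDA-kb2 cells (human breast carcinoma, stably carrying an MMTV-luciferase reporter responsive to AR and GR) were plated at 3,000 cells/well and preincubated 5 hr at 37C, then given compound plus R1881 agonist for 16 h. ONE-Glo luminescence was read.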
# [13] = tested on: thyroid hormone receptor (rat, GH3 cells); test: qHTS assay to identify small molecule agonists of the thyroid receptor (TR) signaling pathway (AID 743066; calls by dose curve; also: potency is read from the fitted curve at half-maximal effect); details: GH3.TRE-Luc cells, TR agonist luciferase, 24 h; activation: at 83.9 µM (top of the series) unless noted
# [14] = target: Estrogen receptor (Homo sapiens) (UniProt P03372); test: qHTS assay to identify small molecule antagonists of the estrogen receptor alpha (ER-alpha) signaling pathway (AID 743069; active = well fitted curve in the direction sought with a large enough effect in the signal ratio in the repeat runs, not every such curve was filed as active; inconclusive = weak or mixed curves, or effect the other way; inactive = no such curve, though single readings can be large or run the other way; the % refers to the signal ratio; also: potency is read from the fitted curve at half-maximal effect); details: HEK293 ER-alpha-UAS-bla, beta-lactamase ratio, antagonist mode; activity, negative = inhibition: at 69.4 µM (top of the series)
# In short: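 HEK293 cells stably carrying an ER-alpha-UAS-bla beta-lactamase reporter were pre-cultured overnight in 2% charcoal-stripped FBS medium. Test compounds in DMSO were added together with 17beta-estradiol for 18 hr at 37C. Read-out was fluorescence after 2 hr with LiveBLAzer B/G FRET substrate at room temperature.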
# [15] = qHTS assay to identify small molecule antagonists of the estrogen receptor alpha (ER-alpha) signaling pathway using the BG1 cell line - cell viability counter screen (AID 743081); details: BG1Luc4E2 viability, CellTiter-Fluor, 22 h; series mostly up to 70.3 µM;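 also: compound given together with 17beta-estradiol as the ER stimulus; nearly all actives have a fitted effect of over 45% in size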; also: potency is read from the fitted curve at half-maximal effect
# Aromatase (Homo sapiens) = Aromatase (Homo sapiens) (UniProt P11511); test: qHTS assay to identify aromatase inhibitors (AID 743083); details: MCF-7 aro ERE, testosterone-driven ERE luciferase, 24 h; series mostly up to 70.3 µM; also: potency is read from the fitted curve at half-maximal effect; nearly all actives have a fitted effect of over 55% in size
# Chain of UniProt P11511 (P11511 whole entry, looked up): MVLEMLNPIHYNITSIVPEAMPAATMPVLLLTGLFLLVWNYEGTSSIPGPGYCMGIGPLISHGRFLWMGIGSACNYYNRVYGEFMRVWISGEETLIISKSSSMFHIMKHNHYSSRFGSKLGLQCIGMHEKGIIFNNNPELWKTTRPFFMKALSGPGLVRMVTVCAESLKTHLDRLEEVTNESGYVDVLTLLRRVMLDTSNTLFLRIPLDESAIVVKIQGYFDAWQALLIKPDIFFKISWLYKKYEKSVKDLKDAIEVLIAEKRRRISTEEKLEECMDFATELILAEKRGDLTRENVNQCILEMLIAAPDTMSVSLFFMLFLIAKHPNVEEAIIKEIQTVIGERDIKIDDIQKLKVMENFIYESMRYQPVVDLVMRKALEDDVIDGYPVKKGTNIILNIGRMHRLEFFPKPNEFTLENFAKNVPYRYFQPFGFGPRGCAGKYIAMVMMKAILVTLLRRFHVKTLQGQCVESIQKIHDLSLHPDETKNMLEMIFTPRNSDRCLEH
# [16] = target: Peroxisome proliferator-activated receptor gamma (Homo sapiens) (UniProt P37231); test: qHTS assay to identify small molecule agonists of the peroxisome proliferator-activated receptor gamma (PPARg) signaling pathway (AID 743094; active = well fitted activation curve with a large enough effect in the signal ratio in the repeat runs, not every such curve was filed as active; inconclusive = weak or mixed curves, or effect the other way; inactive = no such curve, though single readings can be large or run the other way; the % refers to the signal ratio; also: potency is read from the fitted curve at half-maximal effect); details: HEK293H PPARg-UAS-bla, beta-lactamase FRET ratio, 17 h; activation: at 57 µM (top of the series) unless noted
# In short: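 Quantitative HTS agonist mode: stable HEK293H line with UAS-beta-lactamase reporter under PPARg control, 17 h compound exposure at 37C, fluorescence after 1 h FRET substrate loading at room temperature.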
# [17] = target: Aryl hydrocarbon receptor (Homo sapiens) (UniProt P35869); test: qHTS assay to identify small molecule that activate the aryl hydrocarbon receptor (AhR) signaling pathway (AID 743085); details: HepG2 AhR-luc (HG2L7.5c1), luciferase, 24 h; series mostly up to 70.3 µM; also: potency is read from the fitted curve at half-maximal effect; nearly all actives have a fitted effect of over 15% in size
# Chain of UniProt P35869 (P35869 whole entry, looked up): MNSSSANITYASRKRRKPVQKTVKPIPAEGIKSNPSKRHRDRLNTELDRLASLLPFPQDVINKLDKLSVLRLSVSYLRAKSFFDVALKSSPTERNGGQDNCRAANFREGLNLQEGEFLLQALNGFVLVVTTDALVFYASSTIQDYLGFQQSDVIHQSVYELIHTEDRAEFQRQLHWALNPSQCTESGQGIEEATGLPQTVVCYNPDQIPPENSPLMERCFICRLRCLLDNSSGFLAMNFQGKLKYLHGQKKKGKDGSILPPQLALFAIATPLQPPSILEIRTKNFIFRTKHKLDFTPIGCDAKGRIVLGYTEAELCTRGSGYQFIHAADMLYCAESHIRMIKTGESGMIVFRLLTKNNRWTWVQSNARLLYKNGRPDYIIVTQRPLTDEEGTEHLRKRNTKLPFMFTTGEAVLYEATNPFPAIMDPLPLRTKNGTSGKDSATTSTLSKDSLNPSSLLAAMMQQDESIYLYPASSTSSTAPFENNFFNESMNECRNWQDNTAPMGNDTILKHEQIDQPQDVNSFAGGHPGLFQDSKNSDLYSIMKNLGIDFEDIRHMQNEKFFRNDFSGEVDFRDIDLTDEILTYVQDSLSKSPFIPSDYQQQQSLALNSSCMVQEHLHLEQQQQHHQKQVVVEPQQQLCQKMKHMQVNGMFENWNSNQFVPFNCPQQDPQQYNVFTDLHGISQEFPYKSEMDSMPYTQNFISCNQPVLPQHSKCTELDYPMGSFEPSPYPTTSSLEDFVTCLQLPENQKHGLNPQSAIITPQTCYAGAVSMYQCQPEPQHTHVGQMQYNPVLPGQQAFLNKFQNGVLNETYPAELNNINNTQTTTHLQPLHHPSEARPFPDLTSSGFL
# In short: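 AhR agonist activity is inferred from enhanced light output of a DRE-controlled firefly luciferase reporter in HepG2 cells, measured with ONE-Glo following 24 h treatment at 37C.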
# [18] = target: Estrogen receptor (Homo sapiens) (UniProt P03372); test: qHTS assay to identify small molecule agonists of the estrogen receptor alpha (ER-alpha) signaling pathway (AID 743075; calls by dose curve; also: % is scaled to controls: 0 for no effect and ±100 for the full control effect); details: HEK293 ER-alpha-UAS-bla, beta-lactamase FRET ratio, 18 h; activation: at 70.1 µM (top of the series)
# Tags tell the direction and shape of the fitted curve or compound fluorescence and quenching.
structure (smiles),measurement,setting,value
CC(C)c1cccc(C(C)C)c1O,Potency,[1],inactive
same,activity change,[2],inconclusive: -3.41% [phenotype inactive]
same,Potency,[3],"inconclusive: 68.4 µM [inhibitor, single point]"
same,Potency,[4],"inconclusive: 54.8 µM [cytotoxic, single point]"
same,Potency,[5],inactive
same,Potency,[6],"inconclusive: 76.7 µM [cytotoxic, partial curve, poor fit]"
same,"ratio activity, negative = inhibition",[7],inconclusive: 22.1%
CCC(C)(C#N)N=NC(C)(C#N)CC (stereo not given),Potency,[8],inactive
same,Potency,[7],inactive
Cc1ccc(N)c(N)c1,Potency,[9],inactive
same,Potency,[10],active: 13.7 µM and active: 24.3 µM
N#CCCSCCC#N,Potency,[1],"inconclusive: 0.49 µM [activator, single point]"
same,Potency,[11],"inconclusive: 68.7 µM [activator, single point]"
same,Potency,[7],inactive
CC(C)N1C(=O)N(c2ccccc2)CSC1=NC(C)(C)C,activation,[1],inconclusive: -21.9%
same,Potency,[9],inactive
same,Potency,[12],"inconclusive: 68.6 µM [inhibitor, single point]"
same,Potency,[10],"inconclusive: 77 µM [cytotoxic, single point]"
same,Potency,[3],"inconclusive: 68.6 µM [inhibitor, single point]"
same,activation,[13],inconclusive: -9.93% [phenotype inactive]
same,Potency,[14],active: 49 µM [inconclusive]
same,Potency,[11],"inconclusive: 61.1 µM [inhibitor, single point]"
same,Potency,[5],inconclusive: 68.6 µM
same,Potency,[15],inactive
same,Potency,Aromatase (Homo sapiens),"inconclusive: 68.6 µM [inhibitor, single point]"
same,Potency,[6],"inconclusive: 68.6 µM [cytotoxic, single point]"
same,activation,[16],inconclusive: -11.9%
same,Potency,[7],inconclusive: 61.6 µM
O=NN1CCCCC1,Potency,[8],inactive
same,Potency,[3],inactive
same,Potency,[6],inactive
same,Potency,[7],inactive
Clc1cc2c(cc1Cl)Oc1cc(Cl)c(Cl)cc1O2,"activity change, negative = inhibition",[8],inactive: -2.78% [at 0.284 µM]
same,"activity, negative = cytotoxicity",[4],inactive: 14.4% [at 0.274 µM]
same,Potency,[5],active: 0.0007 µM
same,"activity change, negative = cytotoxicity",[15],inactive: -0.0382% [at 0.341 µM]
same,Potency,Aromatase (Homo sapiens),inconclusive: 0.0011 µM [inhibitor]
same,"activity change, negative = cytotoxicity",[6],inactive: 1.38% [at 0.342 µM]
same,Potency,[17],active: 0.0011 µM
Clc1ccc(COC(Cn2ccnc2)c2ccc(Cl)cc2Cl)cc1 (stereo not given),Potency,[9],"inconclusive: 31.2 µM [cytotoxic, partial curve, poor fit] and inconclusive: 57 µM [cytotoxic, single point] and inconclusive: 68.3 µM [cytotoxic, single point]"
same,Potency,[10],"inconclusive: 57 µM [cytotoxic, single point]"
same,Potency,[13],"inconclusive: 30.5 µM [inhibitor, partial curve, poor fit]"
same,Potency,[4],"inconclusive: 7.56 µM [cytotoxic, partial curve, poor fit] and active: 45.7 µM and active: 34.5 µM"
same,Potency,[15],"inconclusive: 57 µM [cytotoxic, single point] and inconclusive: 68.3 µM [cytotoxic, single point]"
same,Potency,[16],"inconclusive: 36.3 µM [falling, partial curve] and inconclusive: 48.8 µM [falling, partial curve]"
CC(C)CCCCCCCOP(=O)(Oc1ccccc1)Oc1ccccc1,Potency,[9],"inconclusive: 61.4 µM [rising, single point]"
same,Potency,[10],active: 27.4 µM
same,Potency,[13],"inconclusive: 10.9 µM [inhibitor, partial curve, poor fit]"
same,Potency,[18],inactive
same,Potency,[7],"inconclusive: 22 µM [rising, partial curve, poor fit]"
